Among the data in paper PMC5700166 are binding signal values, retold here.

This is a selection; strong and weak results do not stand in their true shares. The list includes weakly bound sequences.

Test in all cases: protein-binding microarray (PBM)
Holding throughout (details): PBM: ~300 nM protein, 6 mM HEPES pH 7.8, 80 mM KCl, 0.5 mM EDTA, 0.5 mM EGTA, 6% glycerol, 35 ng/ul poly-dIdC, 1% milk, 1 h, room temperature; Ap Aiptasia and Nv Nematostella (sea anemones) / Co Capsaspora / Aq Amphimedon (sponge) / Dm Drosophila / Hu human; RHD is the Rel homology domain; high values mean tight binding; most listed sequences are background and not binding sites; double strand, one strand shown

The target of one test is T1, GST-Ap-NF-kB RHD (UniProt A0A913YAJ5).
T1 sequence: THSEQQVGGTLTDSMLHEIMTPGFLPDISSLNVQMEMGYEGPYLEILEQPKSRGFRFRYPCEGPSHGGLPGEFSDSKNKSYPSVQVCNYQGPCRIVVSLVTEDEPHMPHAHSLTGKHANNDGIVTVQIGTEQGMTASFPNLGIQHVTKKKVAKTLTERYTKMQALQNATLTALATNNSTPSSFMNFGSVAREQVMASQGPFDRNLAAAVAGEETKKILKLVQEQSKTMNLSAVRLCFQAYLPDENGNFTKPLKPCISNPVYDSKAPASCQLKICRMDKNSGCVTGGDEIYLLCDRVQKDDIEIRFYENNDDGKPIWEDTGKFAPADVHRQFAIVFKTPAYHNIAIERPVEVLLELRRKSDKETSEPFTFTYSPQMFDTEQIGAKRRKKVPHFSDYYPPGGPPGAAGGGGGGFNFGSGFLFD

For test [1], the target named is T2, GST-Nv-NF-kB (Cys allele) (UniProt E5G601).
T2 sequence: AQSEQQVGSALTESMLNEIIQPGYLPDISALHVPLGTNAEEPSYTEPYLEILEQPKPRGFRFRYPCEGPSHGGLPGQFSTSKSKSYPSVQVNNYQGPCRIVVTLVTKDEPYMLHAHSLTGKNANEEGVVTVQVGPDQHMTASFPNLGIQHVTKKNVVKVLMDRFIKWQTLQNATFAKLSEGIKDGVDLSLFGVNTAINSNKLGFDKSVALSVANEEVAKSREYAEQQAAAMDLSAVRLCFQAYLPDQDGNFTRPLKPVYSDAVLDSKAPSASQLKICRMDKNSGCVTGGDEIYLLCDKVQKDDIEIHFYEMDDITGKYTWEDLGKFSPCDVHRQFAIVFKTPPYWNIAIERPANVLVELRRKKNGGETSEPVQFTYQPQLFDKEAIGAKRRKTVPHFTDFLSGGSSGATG

A further test addresses T3, GST-Dm-Relish (UniProt Q94527).
T3 sequence: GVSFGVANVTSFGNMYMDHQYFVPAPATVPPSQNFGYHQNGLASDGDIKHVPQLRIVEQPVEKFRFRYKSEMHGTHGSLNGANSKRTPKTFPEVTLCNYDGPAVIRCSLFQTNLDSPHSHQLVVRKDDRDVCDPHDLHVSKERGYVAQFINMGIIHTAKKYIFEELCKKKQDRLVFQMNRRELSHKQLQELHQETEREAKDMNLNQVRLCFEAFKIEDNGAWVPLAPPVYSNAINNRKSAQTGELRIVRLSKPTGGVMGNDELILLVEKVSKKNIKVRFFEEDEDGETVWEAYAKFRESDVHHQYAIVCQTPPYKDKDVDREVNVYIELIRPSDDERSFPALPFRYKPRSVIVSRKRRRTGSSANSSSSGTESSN

Another test has as its target T4, GST-Aq-NF-kB (UniProt A9Y5G7).
T4 sequence: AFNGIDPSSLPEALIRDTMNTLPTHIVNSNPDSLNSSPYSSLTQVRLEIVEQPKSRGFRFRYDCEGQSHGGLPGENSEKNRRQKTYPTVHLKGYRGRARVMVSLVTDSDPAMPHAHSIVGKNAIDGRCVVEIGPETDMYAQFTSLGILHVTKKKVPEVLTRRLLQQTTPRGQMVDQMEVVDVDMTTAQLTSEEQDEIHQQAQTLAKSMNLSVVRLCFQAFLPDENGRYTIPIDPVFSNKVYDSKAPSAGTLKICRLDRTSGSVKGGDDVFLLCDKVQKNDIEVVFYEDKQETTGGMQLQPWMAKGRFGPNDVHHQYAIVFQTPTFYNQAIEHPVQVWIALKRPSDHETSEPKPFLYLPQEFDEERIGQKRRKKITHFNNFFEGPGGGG

For the next test, the target named is T5, GST-Co-NF-kB (UniProt F1ARL5).
T5 sequence: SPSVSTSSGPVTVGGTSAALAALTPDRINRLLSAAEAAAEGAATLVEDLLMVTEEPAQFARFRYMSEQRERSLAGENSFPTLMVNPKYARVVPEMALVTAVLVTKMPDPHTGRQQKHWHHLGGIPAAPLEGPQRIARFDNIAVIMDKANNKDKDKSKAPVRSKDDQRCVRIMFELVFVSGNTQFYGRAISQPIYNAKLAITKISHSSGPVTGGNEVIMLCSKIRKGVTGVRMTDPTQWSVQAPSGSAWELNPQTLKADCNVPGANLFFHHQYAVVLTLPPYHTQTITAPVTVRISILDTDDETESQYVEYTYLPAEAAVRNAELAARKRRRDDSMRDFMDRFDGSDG

Regarding “CCGATTAACATCAATGTCGGTGGTGATGTTAATCGGGTCTTGATTCGCTTGACGCTGCTG”, the binding signal with GST-Ap-NF-kB RHD is 0.896 z-score; in test [1] it was 0.352 z-score; with GST-Dm-Relish it was 0.243 z-score; with GST-Aq-NF-kB it was 0.95 z-score.

Regarding “CCGATTAACATCAGGGACATACCTGATGTTAATCGGGTCTTGATTCGCTTGACGCTGCTG”, the binding signal turned out to be 2.52 z-score in the test with GST-Ap-NF-kB RHD, 0.808 z-score in the test with GST-Co-NF-kB and 5.64 z-score with GST-Aq-NF-kB.

As for “CCGATTAACATCAGGGATTCTCATGATGTTAATCGGGTCTTGATTCGCTTGACGCTGCTG”, the binding signal in the test with GST-Ap-NF-kB RHD was found to be 2.96 z-score; with GST-Co-NF-kB, 0.799 z-score; with GST-Aq-NF-kB, 2.67 z-score.

With “CCGATTAACATCACGGGAAATTCTGATGTTAATCGGGTCTTGATTCGCTTGACGCTGCTG”, the binding signal stood at 5.1 z-score with GST-Ap-NF-kB RHD, 5.06 z-score in the test with GST-Co-NF-kB and 6.47 z-score with GST-Aq-NF-kB.

On to “CCGATTAACATCAGGCTTTTCCCTGATGTTAATCGGGTCTTGATTCGCTTGACGCTGCTG”, for which the binding signal amounted to 2.62 z-score in the test with GST-Ap-NF-kB RHD, 4.54 z-score in test [1], 2.3 z-score with GST-Dm-Relish and 6.49 z-score with GST-Aq-NF-kB.

Turning to “CCGATTAACATCAGGAAACTACCTGATGTTAATCGGGTCTTGATTCGCTTGACGCTGCTG”, the binding signal with GST-Ap-NF-kB RHD is 1.63 z-score; with GST-Co-NF-kB it was -0.297 z-score; with GST-Aq-NF-kB, 4.72 z-score.

Turning to “CCGATTAACATCAAATTTCCCGGTGATGTTAATCGGGTCTTGATTCGCTTGACGCTGCTG”, the binding signal with GST-Ap-NF-kB RHD was found to be 4.14 z-score; with GST-Co-NF-kB, 6.34 z-score; in the test with GST-Aq-NF-kB it was 4.88 z-score.

Consider “CCGATTAACATCATGTCGGGTGATGATGTTAATCGGGTCTTGATTCGCTTGACGCTGCTG”, for which the binding signal in the test with GST-Ap-NF-kB RHD is 0.288 z-score; in test [1], -0.00993 z-score; with GST-Dm-Relish it was -0.331 z-score; with GST-Aq-NF-kB it was 0.171 z-score.

As for “CCGATTAACATCAAGGTTTCCCCTGATGTTAATCGGGTCTTGATTCGCTTGACGCTGCTG”, the binding signal with GST-Ap-NF-kB RHD was determined as 7.4 z-score; with GST-Co-NF-kB, 8.15 z-score; with GST-Aq-NF-kB, 6.28 z-score.

Regarding “CCGATTAACATCAACCCCAGCTCTGATGTTAATCGGGTCTTGATTCGCTTGACGCTGCTG”, the binding signal in the test with GST-Ap-NF-kB RHD turned out to be 1.01 z-score; with GST-Co-NF-kB, 1.8 z-score; with GST-Aq-NF-kB, 0.585 z-score.

Turning to “CCGATTAACATCACTCTTCTCGGTGATGTTAATCGGGTCTTGATTCGCTTGACGCTGCTG”, the binding signal in the test with GST-Ap-NF-kB RHD stood at 0.929 z-score; in the test with GST-Co-NF-kB, 0.813 z-score; with GST-Aq-NF-kB, 0.148 z-score.

Consider “CCGATTAACATCAAGAAATTACCTGATGTTAATCGGGTCTTGATTCGCTTGACGCTGCTG”, for which the binding signal in the test with GST-Ap-NF-kB RHD was determined as 1.26 z-score; with GST-Co-NF-kB, 0.765 z-score; with GST-Aq-NF-kB, 2.27 z-score.

As for “CCGATTAACATCAGGGGTTTTACTGATGTTAATCGGGTCTTGATTCGCTTGACGCTGCTG”, the binding signal with GST-Ap-NF-kB RHD is 5.39 z-score; with GST-Co-NF-kB, 1.49 z-score; in the test with GST-Aq-NF-kB, 5.84 z-score.

Take “CCGATTAACATCAACATTACCCCTGATGTTAATCGGGTCTTGATTCGCTTGACGCTGCTG”: the binding signal in the test with GST-Ap-NF-kB RHD was found to be 2.39 z-score; in the test with GST-Co-NF-kB, 4.07 z-score; in the test with GST-Aq-NF-kB, 2.86 z-score.

As to “CCGATTAACATCAGGGAATCCCCTGATGTTAATCGGGTCTTGATTCGCTTGACGCTGCTG”, the binding signal was 14.7 z-score in the test with GST-Ap-NF-kB RHD, 13.7 z-score in test [1], 11 z-score with GST-Dm-Relish and 12.1 z-score with GST-Aq-NF-kB.

As for “CCGATTAACATCAATAAACCCCCTGATGTTAATCGGGTCTTGATTCGCTTGACGCTGCTG”, the binding signal was 7.76 z-score with GST-Ap-NF-kB RHD, 2.94 z-score in the test with GST-Co-NF-kB and 6.33 z-score with GST-Aq-NF-kB.

Regarding “CCGATTAACATCAAGGGTGGAAATGATGTTAATCGGGTCTTGATTCGCTTGACGCTGCTG”, the binding signal in the test with GST-Ap-NF-kB RHD was determined as 0.771 z-score; in test [1], 0.22 z-score; in the test with GST-Dm-Relish, 0.0377 z-score; with GST-Aq-NF-kB, 0.785 z-score.
